Assay results as given in the supplement of paper PMC10498489.
The campaign covered roughly 2,300 compounds. About 330 (14%) showed activity.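 How the source made its calls: active = median modified Z-score above 1.96; inactive = 1.96 or below.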 This is a selection; strong and weak results do not stand in their true shares.

What follows are molecules tested on HepG2 Srxn1-GFP reporter cells (+30 nM CDDO-Me) (assay: Srxn1-GFP intensity median modified Z-score relative to plate median; higher = stronger NRF2 / oxidative stress reporter activation, active = hit call of the paper). Conditions: 10 µM; exposure time: 24h.
In short: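 In 96-well plates holding 20,000 HepG2 Srxn1-GFP BAC reporter cells per well, compound at 10 μM and an NRF2 activator at 30 nM were added together for 24 h, with DMSO at ≤0.1%, across three replicate plates. After fixation in formaldehyde and Hoechst staining, confocal images were analysed cell by cell for cytoplasmic GFP, and images containing under 100 cells were excluded. Values are replicate medians of the per-plate modified Z-score of GFP intensity, scaled by 1.4826 × median absolute deviation.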

Row | SMILES | Srxn1-GFP intensity median modified Z-score
1 | CC(=O)OC=C1CSC2C(N)C(=O)N2C1C(=O)O (stereo not drawn) [euspeclibcmpd1380] | inactive: -0.0231
2 | N=c1c2ccccc2[nH]c2ccccc12 [euspeclibcmpd350] | active: 15
3 | NS(=O)(=O)c1cc2c(cc1C(F)(F)F)NC(Cc1ccccc1)NS2(=O)=O (stereo not drawn) [euspeclibcmpd527] | inactive: 0.0905
4 | CC(CN1c2ccccc2Sc2ccccc21)N(C)C (stereo not drawn) [euspeclibcmpd253] | inactive: -0.505
5 | CCCCCCCCCCCCCCCCC(C(=O)O)C(O)(CC(=O)O)C(=O)O (stereo not drawn) [euspeclibcmpd1735] | active: 3.83
6 | CCn1cc(C(=O)O)c(=O)c2cc(F)c(N3CCNCC3)cc21 [euspeclibcmpd215] | inactive: -0.3
7 | O=C(O)c1cc(N=Nc2ccc(S(=O)(=O)N=c3cccc[nH]3)cc2)ccc1O [euspeclibcmpd280] | inactive: -0.614
8 | COc1ccccc1OCCNCC(O)COc1cccc2[nH]c3ccccc3c12 (stereo not drawn) [euspeclibcmpd674] | inactive: 1.52
9 | COc1ccccc1OCCNCC(O)COc1cccc2[nH]c3ccccc3c12 (stereo not drawn) [euspeclibcmpd2429] | inactive: -0.573
10 | COc1ccc(C(C)=O)c(O)c1 [euspeclibcmpd1758] | inactive: -0.216
11 | COc1c(O)cc2c(c1O)[C@@H]1O[C@H](CO)[C@@H](O)[C@H](O)[C@H]1OC2=O [euspeclibcmpd559] | inactive: -0.423
12 | CC(C)=CCCC1(C)C=Cc2c(O)c3c(c(CC=C(C)C)c2O1)OC12C(=CCCC1C(C)(C)O[C@@]2(C=CC(C)C(=O)O)C(=O)O)C3=O (stereo partly drawn) [euspeclibcmpd1701] | active: 6.67
13 | CCCCOc1ccc(OCCCN2CCOCC2)cc1 [euspeclibcmpd396] | active: 2.42
14 | COC(=O)/C(=C1\OC(=O)C(c2ccccc2)C1=O)c1ccccc1 (stereo not drawn) [euspeclibcmpd1487] | inactive: 1.05
15 | CC1CCc2cc(F)cc3c(=O)c(C(=O)O)cn1c23 (stereo not drawn) [euspeclibcmpd359] | inactive: -1.08
16 | CCCOc1ccc2[nH]c(=NC(=O)OC)[nH]c2c1 [euspeclibcmpd575] | active: 5.09
17 | CC(C)[C@@H]1CC[C@@H](C)C[C@H]1OC(=O)c1ccccc1 [euspeclibcmpd1363] | inactive: -0.526
18 | S=P(N1CC1)(N1CC1)N1CC1 [euspeclibcmpd572] | inactive: -0.024
19 | CC1=CC(=O)C2C(C)(C)CCC[C@]2(C)[C@@]1(O)CCc1ccoc1 (stereo partly drawn) [euspeclibcmpd1719] | active: 17.2
20 | CC(C)(C)NCC(O)c1ccc(O)c(CO)c1 (stereo not drawn) [euspeclibcmpd2249] | inactive: -0.119
21 | CCCCCCCC/C=C\CCCCCCCC(=O)O [euspeclibcmpd2051] | inactive: 0.169
22 | Cn1c(=O)c2c(ncn2C)n(C)c1=O [euspeclibcmpd41] | inactive: 0.0172
23 | CCN(CC)C(=O)C(C#N)=Cc1cc(O)c(O)c([N+](=O)[O-])c1 [euspeclibcmpd861] | inactive: -0.942
24 | COc1ccc2cc1Oc1ccc(cc1)C[C@H]1c3c(cc4c(c3Oc3cc5c(cc3OC)CCN(C)[C@@H]5C2)OCO4)CCN1C [euspeclibcmpd1270] | active: 4.85
25 | CN(C)CCC(c1ccc(Cl)cc1)c1ccccn1 (stereo not drawn) [euspeclibcmpd2113] | inactive: 0.115

Row | SMILES | Srxn1-GFP intensity median modified Z-score
26 | OCC(O)CN1CCN(c2ccccc2)CC1 (stereo not drawn) [euspeclibcmpd1057] | inactive: -0.56
27 | COc1cc2c(cc1OC)C(=O)OC2 [euspeclibcmpd1660] | inactive: -0.254
28 | CNC(=O)c1c(I)c(NC(C)=O)c(I)c(C(=O)O)c1I [euspeclibcmpd971] | inactive: -0.735
29 | CCC(=O)NCC[C@@H]1CCc2ccc3c(c21)CCO3 [euspeclibcmpd2343] | inactive: 0.605
30 | COc1c2c(cc3occ(-c4ccc5c(c4)OCO5)c(=O)c13)OC(C)(C)C=C2 [euspeclibcmpd1957] | active: 7.5
31 | O=C1C(CCC(O)c2ccc(F)cc2)[C@@H](c2ccc(O)cc2)N1c1ccc(F)cc1 (stereo partly drawn) [euspeclibcmpd714] | inactive: 1.03
32 | OC[C@H](O)[C@@H](O)CO [euspeclibcmpd2221] | inactive: -0.0632
33 | CCCC(CCC)C(=O)O [euspeclibcmpd2307] | inactive: 0.135
34 | CCCCCCCCCCCCCCCC(=O)O[C@@H]1[C@@H](O)[C@@H](O)[C@H]([C@H](NC(=O)C2C[C@@H](CCC)CN2C)[C@H](C)Cl)O[C@@H]1SC (stereo partly drawn) [euspeclibcmpd1310] | inactive: 0.0886
35 | COc1c(OC)c2occc2c2oc(=O)ccc12 [euspeclibcmpd1321] | inactive: -0.538
36 | CC(C)=CCC/C(C)=C/COc1ccc2ccc(=O)oc2c1 [euspeclibcmpd2330] | inactive: 0.262
37 | Clc1ccccc1C(c1ccccc1)(c1ccccc1)n1ccnc1 [euspeclibcmpd71] | inactive: -0.969
38 | Clc1ccc(COC(Cn2ccnc2)c2ccc(Cl)cc2Cl)cc1 (stereo not drawn) [euspeclibcmpd413] | active: 15.1
39 | CN=C(NC#N)NCCSCc1[nH]cnc1C [euspeclibcmpd338] | active: 3.04
40 | COC1CC2CCC(C)C(O)(O2)C(=O)C(=O)N2CCCCC2C(=O)OC(C(C)CC2CCC(O)C(OC)C2)CC(=O)/C(C)=C/C(C)C(O)C(OC)C(=O)C(C)CC(C)/C=C/C=C/C=C/1C (stereo not drawn) [euspeclibcmpd645] | active: 2.8
41 | C=C(C)C1CC=C(C)CC1 (stereo not drawn) [euspeclibcmpd1249] | inactive: -0.263
42 | CCN(CC)C(=O)N1CCN(C)CC1 [euspeclibcmpd92] | inactive: -0.282
43 | CC(NC(CCc1ccccc1)C(=O)O)C(=O)N1CCCC1C(=O)O (stereo not drawn) [euspeclibcmpd609] | inactive: 0.185
44 | COc1ccc(-n2nc(CCC(=O)N(C)O)cc2-c2ccc(Cl)cc2)cc1 [euspeclibcmpd2352] | inactive: 1.56
45 | CCCSc1ccc2[nH]c(=NC(=O)OC)[nH]c2c1 [euspeclibcmpd630] | active: 3.71
46 | CN1CCN(CC/C=C2\c3ccccc3Sc3ccc(S(=O)(=O)N(C)C)cc32)CC1 [euspeclibcmpd294] | active: 4.72
47 | CN(C)CCC(c1ccccc1)c1ccccn1 (stereo not drawn) [euspeclibcmpd233] | inactive: 0.0882
48 | O=c1c(O)c(-c2ccccc2)oc2cc(O)cc(O)c12 [euspeclibcmpd1698] | inactive: 0.613
49 | O=C(O)c1cc(=O)c2c(OCC(O)COc3cccc4oc(C(=O)O)cc(=O)c34)cccc2o1 [euspeclibcmpd2347] | inactive: 0.044
50 | CC(C=Cc1c(C)c(O)c2ccccc2c1O)=CCC[C@H](C)CCC[C@H](C)CCCC(C)C [euspeclibcmpd621] | inactive: -0.697

Row | SMILES | Srxn1-GFP intensity median modified Z-score
51 | CC(=O)c1ccc2c(c1)N(CCCN1CCN(CCO)CC1)c1ccccc1S2 [euspeclibcmpd619] | inactive: 0.0217
52 | Cc1cc(=N)c2ccccc2n1CCCCCCCCCCn1c(C)cc(=N)c2ccccc21 [euspeclibcmpd1012] | active: 10
53 | CC(=O)OC(C)C[N+](C)(C)C (stereo not drawn) [euspeclibcmpd186] | inactive: -0.428
54 | C=CCc1ccccc1OCC(O)CNC(C)C (stereo not drawn) [euspeclibcmpd973] | inactive: -0.703
55 | COCCn1c(SCC(=O)N(C)Cc2ccc(Cl)s2)nc2cc(Cl)ccc21 | inactive: 0.575
56 | COc1ccc2c(c1)OCC(Cc1ccc(OC)c(OC)c1)C2=O (stereo not drawn) [euspeclibcmpd1645] | active: 15.4
57 | C[C@@H]1CN(c2c(F)c(F)c3c(=O)c(C(=O)O)cn(C4CC4)c3c2F)C[C@H](C)N1 [euspeclibcmpd981] | inactive: -0.465
58 | COc1cc2c(cc1OC)C1C(=O)c3ccc4c(c3O[C@@H]1CO2)C=CC(C)(C)O4 (stereo partly drawn) [euspeclibcmpd1734] | active: 12.7
59 | O=c1cc(-c2ccccc2)oc2ccc(O)cc12 [euspeclibcmpd1505] | inactive: 0.447
60 | CC(CCc1ccc(O)cc1)NCCc1ccc(O)c(O)c1 (stereo not drawn) [euspeclibcmpd670] | inactive: 0.0455
61 | O=C(c1ccccc1)c1ccc(Cl)cc1O | inactive: 1.14
62 | CCOc1nc2cccc(C(=O)OC(C)OC(=O)OC3CCCCC3)c2n1Cc1ccc(-c2ccccc2-c2nn[nH]n2)cc1 (stereo not drawn) [euspeclibcmpd677] | inactive: 0.324
63 | CC(C)(Oc1ccc(C2CC2(Cl)Cl)cc1)C(=O)O (stereo not drawn) [euspeclibcmpd1064] | inactive: -0.411
64 | C[C@@H](O)[C@H]1C(=O)N2C(C(=O)O)=C(SCCN=CN)C[C@H]12 [euspeclibcmpd906] | inactive: -0.526
65 | CC(C)c1c(O)ccc2c1CCC1C(C)(C)CCC[C@]21C (stereo partly drawn) [euspeclibcmpd1572] | active: 8.09
66 | NC(=O)C1(N2CCCCC2)CCN(CCCC(=O)c2ccc(F)cc2)CC1 [euspeclibcmpd843] | inactive: -0.447
67 | CNC1(C)C2CCC(C2)C1(C)C (stereo not drawn) [euspeclibcmpd175] | inactive: -0.487
68 | NC(=O)c1cccnc1 [euspeclibcmpd770] | inactive: -0.139
69 | Cn1c(=O)c2c(ncn2CC(O)CO)n(C)c1=O (stereo not drawn) [euspeclibcmpd108] | inactive: -0.0859
70 | COc1ccc2c(c1)c(CC(=O)OCC(=O)O)c(C)n2C(=O)c1ccc(Cl)cc1 [euspeclibcmpd1046] | inactive: -0.264
71 | COC(=O)N=c1[nH]c2ccc(C(=O)c3ccc(F)cc3)cc2[nH]1 [euspeclibcmpd2318] | active: 8.09
72 | CC(=O)NC[C@H]1CN(c2ccc(N3CCOCC3)c(F)c2)C(=O)O1 [euspeclibcmpd497] | inactive: -0.246
73 | O=C1C(O)=C(O)C(=O)C(O)=C1O [euspeclibcmpd573] | inactive: 0.365
